Experimental data: the supplement of paper PMC11417369
± gives the standard deviation of the averaged measurements. This is one part of the list.

Each sequence was assayed on PfAP2-LT AP2 domain (GST-tagged) (assay: gcPBM binding intensity (ln(normalized median fluorescence intensity)); higher = stronger DNA binding).
In short: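 Binding intensity is the highest Masliner-normalised natural-log median intensity over replicate spots in either probe orientation. To obtain it, GST-tagged P. falciparum DNA-binding domains made in E. coli were incubated for 1 h on an Agilent 4 × 180k array of primer-extended double-stranded 36-bp intergenic genomic probes plus negative controls. Detection used Alexa488 anti-GST antibody with scanning at 488 nm.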

Row | Sequence | gcPBM binding intensity (ln)
1 | CTCACAAATGAATACACACAAACATATATATTTATA [CACACA_site1620] | 9.08 ± 0.38
2 | TGGAATAATACGCGTACACACATATAAATATTAATA [CACACA_site6211] | 9.26 ± 0.44
3 | ATATAATGGCTAAATAGTACAATATAATATTTTTTA [XGTACX_site8922] | 8.64 ± 0.44
4 | ACACATGAATATTGTAGTACGGCAATTAATATAATA [XGTACX_site4589] | 9.01 ± 0.4
5 | AGAAAGGAAAAAACCTCACACATGCTTTTAATAGTA [CACACA_site4602] | 8.71 ± 0.43
6 | AAAAAAATATAAATACGTACATATATATATATATAT [XGTACX_site432] | 9.79 ± 0.17
7 | CTATTCTATTTTTATTGTACATATATATAATTTGAA [XGTACX_site389] | 8.66 ± 0.42
8 | AATAGAAAAAAAAAATGTACAAAATGTTTATAAAAA [XGTACX_site4635] | 8.79 ± 0.52
9 | TCATTTTAAGGAAAAAGTACAAAATAATATGTTCCT [XGTACX_site1903] | 8.49 ± 0.4
10 | GATGTGTAAATAAGGATATATAACAATCAACAAAAC [XGTACX_negctrl_site494] | 9.18 ± 0.47
11 | TTCTTAATACAAATATGTACATATATATATATATAT [XGTACX_site757] | 9.31 ± 0.042
12 | ACCTATTTCAAACACACACACACACCCACAAACATA [CACACA_site977] | 10.1 ± 0.33
13 | ACGAATATAGGATGTTTGCACTGTACCAATAAATGA [GTGCAC_site9808] | 8.81 ± 0.42
14 | AAATTACCCTTGTGTACACATATATTATCTGTATTA [CACACA_site4514] | 9.16 ± 0.4
15 | AAATGAATATAAAATATACACACTTATATATTGAAT [CACACA_site202] | 8.9 ± 0.42
16 | AAAAAATTTTAATATGCATGTAATTTTGCTTTTTCA [TGCATGCA_site1044] | 8.56 ± 0.39
17 | AGCACGCACAGACACACACACATATTTATATTTATA [CACACA_site6291] | 9.72 ± 0.39
18 | TAATATAGGGGTGTTCAAATAAATTTTGTTATTTTT [CACACA_negctrl_site1203] | 8.9 ± 0.25
19 | GAAGGAAATAAATCAACACACATATATTATAGATAT [CACACA_site7095] | 9.18 ± 0.46
20 | ATAATGTAAAATAAATGTACGCAATATATAAAAAAT [XGTACX_site5747] | 9.17 ± 0.41
21 | TATTGAAAGTGAATTATAACATTAAAAATATATATA [TGCATGCA_negctrl_site566] | 8.51 ± 0.49
22 | TGAATATGTAAATGCACACCAAAAAAAAAAAAAAAA [CACACA_site3566] | 8.87 ± 0.42
23 | CAATATAAAAGACACACACACAAACATATATTTATA [CACACA_site7697] | 10 ± 0.37

Row | Sequence | gcPBM binding intensity (ln)
24 | AAAATAAAAAAAATGAATTAGTTAAATGAAAAATAA [CACACA_negctrl_site1294] | 8.48 ± 0.48
25 | ATTATATAATAATGCATGCACCTTATTTTCATTTCA [GTGCAC_site9922] | 9.14 ± 0.36
26 | TTTCTTTTTTTGGGCACACAAAATTTTCTCATTTTA [CACACA_site68] | 8.8 ± 0.4
27 | TGAATAAATAAACACACACACATATATATATCTGTA [CACACA_site4184] | 9.89 ± 0.23
28 | TATCTTCATATATGGTGTACAGATTTTTTTTTTTTT [XGTACX_site5545] | 8.69 ± 0.49
29 | ATAAAATTATTATATACATGCAAAATTAATATATTG [TGCATGCA_site507] | 8.47 ± 0.36
30 | AAATAATAAAGTATAACACACATATTTATTTATATA [CACACA_site7822] | 8.79 ± 0.43
31 | AAATAGAAAAAATATACACACACTTATTAAATAAAA [CACACA_site3313] | 9.16 ± 0.35
32 | CTGATATATTATTTATCTGAATATATTAATATGTAT [GTGCAC_negctrl_site82] | 8.54 ± 0.45
33 | AAAATTAAAAAAATATGTACTTATGGGTAACATCAT [XGTACX_site5548] | 8.57 ± 0.38
34 | GTTATACATTTGAAAAGTACTCATGATTTTTTTTTT [XGTACX_site8177] | 8.65 ± 0.42
35 | AATATTCAATATAAAGTGCATTATTGTGCCCCTAAT | 8.69 ± 0.42
36 | TTTTTATTGTTATACTTATATTATTTTATGATTAAA [XGTACX_negctrl_site262] | 8.49 ± 0.54
37 | ATAAAAATCAAAAAAAATACATAATAGTAATAATAA [GTGCAC_negctrl_site481] | 8.73 ± 0.54
38 | GATTATACAAAATATACACACGTGTACAGAAATATT [CACACA_site8305] | 9.3 ± 0.35
39 | ATATATTTATTTATATGTACATATTATATATTATAG [XGTACX_site3371] | 8.88 ± 0.47
40 | TTATATTAATTTTGTTGTACTATTTGTGCATTAAAT [XGTACX_site4790] | 8.68 ± 0.52
41 | AAGATATGAACATTTTGTACTTAAAAATTCAATATT [XGTACX_site7103] | 8.49 ± 0.45
42 | CACAGACACGGACACACACACATATATAATATATAT [CACACA_site4495] | 9.87 ± 0.42
43 | TAAACAAATAAATATTGTACATTTTTTCCTTTTAAT [XGTACX_site5594] | 8.48 ± 0.53
44 | AAGGATAATATATTAGAACACACATATATATGTAAA [CACACA_site7942] | 8.92 ± 0.47
45 | TTTATATAAAATTATTGTACAGTTTTAATATTTTAA [XGTACX_site6807] | 8.27 ± 0.54
46 | TACATACACAAATACACACACAAATACATACACAAA [CACACA_site704] | 9.73 ± 0.36

Row | Sequence | gcPBM binding intensity (ln)
47 | ACATTTTATATATGTAGTACATATTATAGATAATTT [XGTACX_site1976] | 8.68 ± 0.4
48 | AGTTGGATACGAAGATGTACAATAATAATAATTAAG [XGTACX_site3561] | 8.88 ± 0.54
49 | ATCAAAAACATACCTACACACACAATATGTATATAT [CACACA_site9171] | 9.51 ± 0.28
50 | TCACTATAATAATTTACACACATTTTAAGAAAATGG [CACACA_site5867] | 8.74 ± 0.42
51 | TATTTTATTTTTTTATGTACACAAAAAAAAAAAAAA [XGTACX_site945] | 8.16 ± 0.2
52 | TATTATGTTTATTAAACATGCATATATTTATTTATA [TGCATGCA_site187] | 8.64 ± 0.35
53 | ATATTTTATCATGTTTAATATTTATGTGGACATAAA [GTGCAC_negctrl_site275] | 8.48 ± 0.36
54 | CAATGGTACATACATACACACACACTAATAAAAAAA [CACACA_site8450] | 9.62 ± 0.4
55 | TACAATCCATATTGTTGTACATTTATAAAATTTACA [XGTACX_site3053] | 8.45 ± 0.39
56 | GTATATATATAAGAAGAAATATATAAATAAAATATA [CACACA_negctrl_site503] | 8.75 ± 0.49
57 | GCTTATTAATATCATACACACATAGATATATTTATA [CACACA_site3104] | 8.91 ± 0.39
58 | TAAAAAATATAAACTGCACACACACTAATAAAGAAA [CACACA_site8119] | 9.59 ± 0.32
59 | AATATATAAATGTTGTGTACTAAGCAATATATTTTA [XGTACX_site2483] | 8.78 ± 0.45
60 | ATTCGTCACATTTTTTGATATATATATATATATATA [CACACA_negctrl_site1785] | 9.7 ± 0.11
61 | CTATTATCGGTTCCTACACACAAATATATATGTCTA [CACACA_site3579] | 9.28 ± 0.42
62 | ATATAGTTGTCATATTGTACACTTTAGGGTTGGTTA [XGTACX_site7339] | 8.94 ± 0.47
63 | AGGACAAGGGTTACATGTACATATATATATATATAT [XGTACX_site901] | 10.2 ± 0.14
64 | CCTAGAAAAAAGAACTGTACATATATATATAAATAT [XGTACX_site1680] | 8.8 ± 0.41
65 | ATAAATAAAAATAGAACACACATATGTTTTTTTTTT [CACACA_site3556] | 8.7 ± 0.47
66 | TTAATTGAAACTTATTGTACTTTTTTTTTTTTTTTT [XGTACX_site8162] | 8.25 ± 0.62
67 | TGAAAAAATATAATTTGTACATATCAGGCAAAAATG [XGTACX_site1824] | 8.73 ± 0.41
68 | ATATGCAGAGACTGTTTGCACTTTTTTATTTTATGT [GTGCAC_site9695] | 9.04 ± 0.43
69 | ATTATAATTACTCTAGTGCATTATAAATATGAATAA | 8.49 ± 0.39

Row | Sequence | gcPBM binding intensity (ln)
70 | CTCAAATTTATTAGTGGTACATAACCAAGGAAATAA [XGTACX_site225] | 8.84 ± 0.49
71 | AAGTTATTTATATATACACACAAATATAAATAATAT [CACACA_site1228] | 8.88 ± 0.41
72 | ATAAATTATATTATTGAACACACGTTTGGTAATGTT [CACACA_site2662] | 8.81 ± 0.35
73 | AAAAAAATAATAAAAAGTACAAAATGTAGAAAATGT [XGTACX_site5018] | 9.43 ± 0.42
74 | AAAAAATAAAACATATATAATATATAATATATATAT [GTGCAC_negctrl_site447] | 8.69 ± 0.4
75 | AATGTGAAAACGTGTACACATTTTATTTAATTTATC [CACACA_site5966] | 8.93 ± 0.43
76 | ATATATATTATATATTGTACATATTATATTCATTAT [XGTACX_site1766] | 8.81 ± 0.41
77 | TTTATTAATTTATAGTGTACATATTAATAATATATT [XGTACX_site7949] | 8.55 ± 0.41
78 | AACAAGGCCCGGTACTGTACATTTTTTCATAACATT [XGTACX_site6134] | 8.8 ± 0.44
79 | GTATGTATATTTATCTGTACATATTTATGTATTCTT [XGTACX_site2112] | 9.11 ± 0.47
80 | TATATACATATATACACACACATATATTATATATAT [CACACA_site275] | 9.31 ± 0.28
81 | AAAATATAAATTCATGTGCACATATATATTTTGTTA [GTGCAC_site9782] | 8.78 ± 0.47
82 | AGGAAAAAATCGAGTAGTACACATTTAGAAATATAA [XGTACX_site8019] | 8.85 ± 0.45
83 | ATATCACATATATATATATATATATATATATATATA [XGTACX_negctrl_site463] | 9.955 ± 0.021
84 | AAAATTGATATATGCACACATATATATATTAAATAT [CACACA_site763] | 9.05 ± 0.42
85 | TTTCATTCTGGTATCACACATTTATTTTCTAGTTTA [CACACA_site4286] | 8.87 ± 0.47
86 | AAAAAAAAAAAAAACACACATACACATATATTTTTA [CACACA_site3893] | 8.87 ± 0.43
87 | AGTTATAATAAAAAATGTACGTATTATCATTAAGAA [XGTACX_site4244] | 8.77 ± 0.35
88 | TATAAATATAAAAGGAGTACAAATATATATATATAT [XGTACX_site1386] | 9.4 ± 0.12
89 | TTTTTTTTTATAGCTAAACACACATAAGAATATATG [CACACA_site8282] | 8.57 ± 0.5
